# From publication PMC4336329 (PLoS ONE, 2015)
# About 14,000 (4.5%) of roughly 310,000 compounds showed an effect of 50% or more. The effect is printed as a negative number. The list shows a part of the results.
# Target: human ether-à-go-go-related gene (hERG) potassium channel (human, UniProt Q12809)
# Experiment: primary screen, population patch clamp on CHO cells stably expressing hERG
# 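Further: peak tail current of the secondary pulse compared with the same well before compound.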
# human ether-à-go-go-related gene (hERG) potassium channel, sequence (Q12809 whole entry, looked up): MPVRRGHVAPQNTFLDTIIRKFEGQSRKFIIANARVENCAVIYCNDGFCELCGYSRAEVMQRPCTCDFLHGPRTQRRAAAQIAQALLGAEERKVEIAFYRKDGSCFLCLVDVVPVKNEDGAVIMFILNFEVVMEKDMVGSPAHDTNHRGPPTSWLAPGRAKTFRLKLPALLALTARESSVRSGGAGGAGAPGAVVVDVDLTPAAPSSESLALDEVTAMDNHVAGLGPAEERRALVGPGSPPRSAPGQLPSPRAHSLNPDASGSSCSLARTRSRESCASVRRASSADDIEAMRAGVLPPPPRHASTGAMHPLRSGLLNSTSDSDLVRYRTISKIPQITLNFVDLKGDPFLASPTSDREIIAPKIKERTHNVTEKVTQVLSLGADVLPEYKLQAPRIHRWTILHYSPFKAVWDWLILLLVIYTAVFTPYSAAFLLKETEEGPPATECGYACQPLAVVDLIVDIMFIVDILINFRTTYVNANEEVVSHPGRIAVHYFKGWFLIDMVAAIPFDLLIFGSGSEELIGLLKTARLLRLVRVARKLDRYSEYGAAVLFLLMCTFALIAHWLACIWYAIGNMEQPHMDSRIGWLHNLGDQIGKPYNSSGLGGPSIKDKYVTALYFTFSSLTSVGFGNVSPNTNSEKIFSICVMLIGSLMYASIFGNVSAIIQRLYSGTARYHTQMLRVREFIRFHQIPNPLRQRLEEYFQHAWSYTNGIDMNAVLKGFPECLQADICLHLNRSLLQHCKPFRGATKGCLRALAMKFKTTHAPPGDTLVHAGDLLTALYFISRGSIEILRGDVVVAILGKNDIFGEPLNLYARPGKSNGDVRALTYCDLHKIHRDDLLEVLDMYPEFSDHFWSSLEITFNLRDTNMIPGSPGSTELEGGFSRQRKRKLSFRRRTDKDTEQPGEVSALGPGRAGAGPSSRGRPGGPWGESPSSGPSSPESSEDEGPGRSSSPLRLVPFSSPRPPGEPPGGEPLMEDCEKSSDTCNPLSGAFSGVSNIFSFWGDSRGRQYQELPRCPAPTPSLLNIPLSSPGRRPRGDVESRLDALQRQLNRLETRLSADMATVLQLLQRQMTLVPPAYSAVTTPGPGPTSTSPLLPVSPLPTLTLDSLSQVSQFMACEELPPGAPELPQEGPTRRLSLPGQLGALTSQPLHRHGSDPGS
row,SMILES,"hERG current change (%, negative = inhibition) at 10uM [%]"
1,CCC(C)N(CCNC(=O)CC1Oc2ccccc2NC1=O)C1CCCCC1 (centres unmarked),-57.7
2,COC(=O)/C(=C1/Oc2cc3c(cc2S1)OCO3)C(F)(F)F,10
3,COc1ccc(/C=N/n2c(C)nc3sc(C)c(C)c3c2=O)cc1OC,5.04
4,Cc1ccc(OCC(=O)Nc2cccc(C)n2)c(C)c1,15.5
5,COc1ccc2oc(=O)c(/C(N)=N/NC(=O)c3ccncc3)cc2c1,2.46
6,COc1ccc(NC(=O)c2sc3nc(-c4cccnc4)ccc3c2N)cc1,-0.0629
7,Cc1ccc(COc2ccc(CNCCCN3CCCCCC3=O)cc2)cc1,-18.6
8,CCCNC(=O)c1ccc2c(=O)c(O)c(-c3ccc(C)cc3)[nH]c2c1,-9.57
9,COc1cc(/C=C(\C#N)c2nc3ccccc3[nH]2)c([N+](=O)[O-])cc1OCc1ccccc1,8.16
10,CCOc1ccc(OCC)c(NC(=O)C2CCCN2S(=O)(=O)c2cccc3cccnc23)c1 (centres unmarked),-4.43
11,O=C(N/N=C/c1ccccc1C(=O)O)c1cccc(S(=O)(=O)N2CCOCC2)c1,-32.2
12,O=C(COC(=O)C1CC2CCCC(C1)C2=O)Nc1nc(-c2ccc(F)c(F)c2)cs1 (centres unmarked),-6.64
13,Cc1cc(C)c2[nH]c(=O)c(CN(Cc3ccco3)C(=O)C3CCCO3)cc2c1 (centres unmarked),-16.5
14,COc1cccc(C(=O)NC2C(=O)N3C(C(=O)O)=C(COC(C)=O)CSC23)c1 (centres unmarked),8.14
15,COc1ccc(CNC(=O)COC(=O)C2=COCCO2)cc1,4.72
16,Cc1ccc(N(CN2CCCC2=O)C(=O)c2ccc(OC(C)C)cc2)cc1,-1.79
17,O=C(CSc1ccc(Cl)cc1)N1CCN(c2ccc([N+](=O)[O-])cc2Cl)CC1,-59.2
18,CCOc1ccc(/C=N/NC(=O)c2ccc(Cn3cc([N+](=O)[O-])cn3)o2)cc1,-31.4
19,Cl.O=C(CNC1=NCCC1)c1ccc(Cl)cc1,-12.2
20,COc1ccc(C)cc1NC(=O)c1sc2ncnc(N3CCN(c4ccccn4)CC3)c2c1C,-9.78
21,O=C(NC(=S)N1CCN(Cc2ccc3c(c2)OCO3)CC1)c1cccc(Br)c1,3.94
22,COc1ccc(CCN(C)C(=O)c2cc(S(=O)(=O)N3CCCCCC3)ccc2OC)cc1OC,-31.8

row,SMILES,"hERG current change (%, negative = inhibition) at 10uM [%]"
1,CSCCC(NC(=O)c1ccccc1)C(=O)NNC(=O)c1csc(N2CCOCC2)n1 (centres unmarked),20.9
2,CCCCn1c(N)c(N(CCOC)C(=O)c2cc(-c3ccc(OC)cc3)nc3ccccc23)c(=O)[nH]c1=O,-1.57
3,CCN(C(=O)COC(=O)c1cc(S(=O)(=O)Nc2c(C)n(C)n(-c3ccccc3)c2=O)ccc1Cl)C1CCCCC1,-49.9
4,S=c1[nH]ccn1-c1cccc(Cl)c1,19.2
5,Cc1ccc(NC(=O)CCNC(=O)c2ccco2)cc1,14.8
6,Cc1cccc2c(=O)cc(C(F)(F)F)[nH]c12,13.8
7,Cc1cccc(NC2=Nc3ccccc3N3C2=Nc2c(c(C)nn2-c2ccccc2)C3c2ccc(O)c(O)c2)c1 (centres unmarked),-3.53
8,CSc1ccc(C#N)cc1NC(=O)c1cccnc1Cl,9.6
9,Cc1ccc(CCNC(=O)C2CCN(S(=O)(=O)N3CCC4(CC3)OCCO4)CC2)cc1,-2.29
10,COc1ccccc1OCc1nc(C#N)c(N2CC(C)CC(C)C2)o1 (centres unmarked),-24.7
11,O=C(CN1CCCC1)OCCCc1ccccc1,6.79
12,CCOC(=O)C1CCCN(C(=O)/C=C/c2ccc(OC)cc2)C1 (centres unmarked),-23.6
13,COc1ccc(OC)c(/C=C/C(=O)N2CCN(S(=O)(=O)c3ccc(C)cc3C)CC2)c1,-1.49
14,CCc1nnc(NC(=O)CSc2nnc(-c3ccc(NS(=O)(=O)c4ccccc4)cc3)o2)s1,12.1
15,Cc1nc(N2CCC3(CC2)OCCO3)c2nnn(Cc3ccccc3F)c2n1,-7.48
16,O=C(NNS(=O)(=O)c1cccc(Cl)c1)c1cc(-c2ccc(F)cc2)nc2ccccc12,11.6
17,CC(=O)c1ccccc1NC(=O)C1CCCN(C(=O)c2ccc(Cl)cc2)C1 (centres unmarked),-25.6
18,CCOc1cc(NC(=O)c2cccs2)c(OCC)cc1NC(=O)CCC(=O)NCCN1CCOCC1,26.5
19,CCOC(=O)c1ccc(NCc2cccnc2)cc1,0.518
20,Cn1ccnc1SCC(=O)c1c[nH]c2ccccc12,23
21,NC(=O)c1cc(N)ccc1N1CCCCC1,-17.5
22,O=C(O)CCn1cc(-c2ccc(F)cc2)nc1-c1ccncc1,9.13

row,SMILES,"hERG current change (%, negative = inhibition) at 10uM [%]"
1,O=C(O)CC(NC(=O)C12CC3CC(CC(C3)C1)C2)c1cccc(Cl)c1 (centres unmarked),6.58
2,Cc1ccc(S(=O)(=O)NCCOc2cc(C)ccc2C)cc1,-6.41
3,COc1ccc(N(C(C)C(=O)N/N=C/c2ccc(OC(C)C)cc2)S(C)(=O)=O)cc1 (centres unmarked),-52.4
4,Cc1cc(C)c(C#N)c(SCC(=O)Nc2ccccc2)n1,13.3
5,CCOC(=O)C1(Cc2cccc(F)c2)CCN(CC(O)CO)CC1 (centres unmarked),14.5
6,O=Cc1ccc(OC(=O)C2CC(=O)N(c3ccc(F)cc3)C2)cc1 (centres unmarked),-0.986
7,O=C(CSc1nnnn1-c1cccc(F)c1)NC1CCCCC1,3.93
8,CC(=O)c1cccc(NC(=O)COc2ccc(S(=O)(=O)N3CCCCC3)cc2)c1,-36.9
9,Cc1ccc(/C=N/N=C/c2ccc(C)s2)s1,7.85
10,COc1ccc(-n2nc(C(=O)O)nc2-c2ccccc2)cc1,14.1
11,O=C(CCn1nnc2ccccc21)Nc1nnc(-c2ccccc2F)s1,3.13
12,O=C(CSc1nnc(-c2ccc(F)cc2)c2ccccc12)Nc1ccccc1,6.68
13,CCN(CC)c1ccc(NC(=O)c2cccc(F)c2)c(C)c1,-8.26
14,Cc1ccc(NC(=O)c2ccc(NC3=NC4CS(=O)(=O)CC4S3)cc2)cc1 (centres unmarked),11.3
15,O=C(CN(C(=O)CNS(=O)(=O)c1ccccc1)C1CCCC1)NCc1ccco1,8.31
16,O=S(=O)(NCC(Nc1ccc(Cl)cc1)c1ccccc1)c1ccccc1 (centres unmarked),-4.66
17,O=C(O)CCSCC(=O)Nc1c(C(=O)C2CC2)oc2ccccc12,2.37
18,COCCC(=O)N1CCC(Oc2ccc(C(=O)NC3Cc4ccccc4C3)cc2)CC1,-8.88
19,CC(=O)c1c(C(C)=O)c(C)n(C2CCCCC2)c1C,2.97
20,Cc1ccc(N=Nc2ccc(O)c3ncccc23)cc1C,0.551
21,CC(C)C(C)NC(=O)COC(=O)/C=C/c1ccc(S(=O)(=O)N2CCc3ccccc32)cc1 (centres unmarked),23.2
22,O=C(Nc1ccc2nsnc2c1)NC1CCCCC1,-8.28

row,SMILES,"hERG current change (%, negative = inhibition) at 10uM [%]"
1,COc1cccc(OCCn2cc(C(=O)c3ccco3)c3ccccc32)c1,20.1
2,O=c1[nH]c2ccc(S(=O)(=O)Nc3ccc(Br)cc3)cc2[nH]1,19.3
3,COc1ccc2cc(CN(Cc3ccco3)C(c3nnnn3C3CCCCC3)C(C)C)c(=O)[nH]c2c1 (centres unmarked),0.199
4,Cc1cccc(C)c1Nc1nnc(SC/C(O)=C(\C#N)c2nc3ccccc3[nH]2)s1,21.3
5,Cc1occc1C(=O)NCCCCNC(=O)c1ccoc1C,-11.9
6,CCOCCCn1c(SCC(=O)/C(C#N)=C(\C)N)nc2ccccc2c1=O,19.6
7,COc1ccc(/C=N/NC(=O)C2c3ccccc3Oc3ccccc32)c(OC)c1,16
8,O=C(Oc1cccc(NC2=NS(=O)(=O)c3ccccc32)c1)c1cccnc1,19.9
9,O=C(CCCn1c(SCC(=O)NC2CCCCC2)nc2ccccc2c1=O)NCC1CCCO1 (centres unmarked),-61.5
10,Cc1cc(S(=O)(=O)N2CCCCC2CCNC(=O)C(=O)NCC2CCCO2)ccc1F (centres unmarked),-39.3
11,Cn1c(=O)c2c(nc(NCCO)n2C)n(C)c1=O,15.9
12,COc1ccc(Br)c(C(=O)N2CCN(S(=O)(=O)/C=C/c3ccccc3)CC2)c1,-58.8
13,O=C(c1cn(Cc2ccccc2)c2ccccc12)N1CCCCC1,-45
14,CC(C(=O)Nc1ccccc1-c1ccccc1)N(C)Cc1nc2ccccc2c(=O)[nH]1 (centres unmarked),-12.5
15,CCCCNC(=O)C(=O)NCCCn1ccnc1,-10.2
16,COc1ccc(C(CNC(=O)c2ccc3c(c2)OCCO3)N(C)C)cc1 (centres unmarked),11.3
17,COc1cccc(OCC(O)CNC(=O)c2oc3ccc(C)cc3c2C)c1 (centres unmarked),-1.46
18,Cc1ccc(NC(=O)CN(C)C(=O)COc2ncnc3ccc(Br)cc23)cc1,11.4
19,O=C(O)CCCN1C(=O)/C(=C/c2ccncc2)SC1=S,13.1
20,Cc1c(Br)c([N+](=O)[O-])nn1C(C)C(=O)NCc1cccs1 (centres unmarked),-17
